Measurements from PubChem BioAssay AID1768 (National Center for Advancing Translational Sciences (NCATS), 2009).
The campaign covered roughly 270,000 compounds. About 620 (0.23%) were called active. Inconclusive means that the source gave no clear call. Such entries were picked first, then a sample of the others. Calls come from the whole dose curve; as a rule, active = well fitted inhibition curve with a large enough effect in the polarisation, with a control signal flat (not every such curve was filed as active); inconclusive = small, poorly fitted or top-dose-only effect, or effect the other way, or a change in a side signal; inactive = no such curve, though single readings can be large or run the other way; the % refers to the polarisation. A potency beside an inconclusive call is a rough fit, not a confirmed value. A note “side channel” means that the fit belongs to a control or component signal, not to the main read-out.

Biological target: Menin (Homo sapiens) (UniProt O00255)
Test: qHTS Assay for Inhibitors Targeting the Menin-MLL Interaction in MLL Related Leukemias: Competition With Texas Red Labeled MLL-derived Mutant Peptide; for FP activity change, negative = inhibition: % of control where 0% means no effect
Settings: fluorescence polarization; FP activity change, negative = inhibition: at 61.6 µM (top of the series)
Potency is the fitted concentration of half-maximal effect; tags give direction and shape of the fitted curve or compound fluorescence and quenching.

UniProt O00255, sequence (O00255 whole entry, looked up): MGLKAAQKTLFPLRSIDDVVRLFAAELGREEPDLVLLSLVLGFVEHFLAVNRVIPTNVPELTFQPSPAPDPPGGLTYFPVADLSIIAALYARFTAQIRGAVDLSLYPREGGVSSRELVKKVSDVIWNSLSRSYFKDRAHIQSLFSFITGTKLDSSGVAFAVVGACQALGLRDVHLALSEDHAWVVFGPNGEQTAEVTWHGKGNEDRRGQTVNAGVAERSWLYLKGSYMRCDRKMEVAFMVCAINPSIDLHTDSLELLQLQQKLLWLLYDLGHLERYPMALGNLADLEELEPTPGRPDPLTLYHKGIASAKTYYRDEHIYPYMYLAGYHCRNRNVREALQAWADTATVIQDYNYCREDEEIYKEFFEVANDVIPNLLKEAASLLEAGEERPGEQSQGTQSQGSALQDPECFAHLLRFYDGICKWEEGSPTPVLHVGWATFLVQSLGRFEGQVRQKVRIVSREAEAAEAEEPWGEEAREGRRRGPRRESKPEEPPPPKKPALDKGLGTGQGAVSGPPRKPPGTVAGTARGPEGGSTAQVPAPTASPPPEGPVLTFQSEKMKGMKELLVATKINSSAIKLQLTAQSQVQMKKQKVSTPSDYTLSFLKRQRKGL

`CCOC(=O)CCSc1nc(C)c2cc(OC)ccc2n1` was tested. Which “FP activity change, negative = inhibition” value did it give?
Its value is inactive: -0.499%.

Which Potency does the source give for `Cc1ccc(NC(=O)Nc2cnccn2)cc1Cl` here?
The Potency was inconclusive: 39.8 µM [inhibitor, single point].

For `CCN1CCCC1CN(Cc1cc2ccc(C)c(C)c2[nH]c1=O)C(=O)Nc1ccccc1OC` (configuration not stated), which Potency is on record?
Its Potency is inconclusive: 25.1 µM [fluorescent, side channel, single point].

How did the “FP activity change, negative = inhibition” value turn out when `COc1ccc(N2CCN(S(=O)(=O)CCNC(=O)C34CC5CC(CC(C5)C3)C4)CC2)cc1` was run?
The value was inactive: -25%.

Which Potency does the source give for `Cc1ccccc1OCc1nnc(SCCN2CCCC2)n1-c1ccccc1` here?
The Potency was inconclusive: 10 µM [fluorescent, side channel, partial curve].

Which Potency does the source give for `Cc1ccc(NC(=O)Nc2ccc3c(c2)OCO3)c(OC(F)F)c1` here?
Its Potency is inconclusive: 5.62 µM [quencher, side channel, partial curve].

`O=C(c1cccc(F)c1)N1CCC2(CC1)CCN(c1cccc(-c3ccccc3)c1)CC2` was tested. Which Potency did it give?
Its Potency is inconclusive: 20 µM [fluorescent, side channel, partial curve].

Which Potency does the source give for `COc1ccc(C(O)c2ncc(C(F)(F)F)cc2Cl)cc1` (configuration not stated) here?
Its Potency is inconclusive: 11.2 µM [inhibitor, partial curve].

`Cc1ccc(SCCNC(=O)c2ccc(CN3CCOCC3)cc2)cc1` was tested. Which “FP activity change, negative = inhibition” value did it give?
The value was inactive: -1.27%.

Which Potency does the source give for `CCCCCCCNC(=O)COc1ccc2c(c1)C(=O)CC(C)(C)O2` here?
Its Potency is inconclusive: 28.2 µM [fluorescent, side channel, single point].

Which Potency does the source give for `CC12CN(NC(=O)c3ccccc3F)C3(C#N)CC1CCC23C` (configuration not stated) here?
The Potency was inconclusive: 2 µM [inhibitor, partial curve].

With `COc1ccc2nc(NC(=O)c3ccc(-c4cccc([N+](=O)[O-])c4)o3)sc2c1` as the molecule, how does the Potency read?
The Potency was inconclusive: 35.5 µM [quencher, side channel, partial curve].

How did the “FP activity change, negative = inhibition” value turn out when `CCOC(=O)C(Cc1ccc(N)cc1)N1C(=O)c2ccccc2C1=O` (configuration not stated) was run?
Its value is inactive: -0.825%.

For `COc1cc(/C=N/NC(=O)c2cc(C34CC5CC(CC(C5)C3)C4)[nH]n2)ccc1O`, which Potency is on record?
Its Potency is inconclusive: 14.1 µM [quencher, side channel, partial curve].

How did the Potency turn out when `CCOc1ccc2[nH]c(=O)c(CN(Cc3ccco3)C(CC)c3nnnn3Cc3ccccc3)cc2c1` (configuration not stated) was run?
Its Potency is inconclusive: 31.6 µM [fluorescent, side channel, single point].

For `O=C1c2ccncc2C(=O)N1Cc1cccc(Cl)c1`, which Potency is on record?
Its Potency is inconclusive: 3.55 µM [inhibitor, partial curve].

For `O=C(NNC(=S)Nc1cccc(C(F)(F)F)c1)c1cccc(Cl)c1`, which Potency is on record?
Its Potency is inconclusive: 25.1 µM [quencher, side channel, partial curve].

`COc1ccc(CCNC(=O)C(=O)NCc2ccccc2C)cc1OC` was tested. Which Potency did it give?
The Potency was inconclusive: 10 µM [inhibitor, full curve, poor fit].

For `Cc1cccc(Cc2nnc(CCC(=O)N(CC3CC3)CC3CCCO3)o2)c1` (configuration not stated), which Potency is on record?
Its Potency is inconclusive: 10 µM [fluorescent, side channel, partial curve].

`COC(=O)c1cc(N2C(=O)C3C4C=CC(CC4)C3C2=O)ccc1Cl` (configuration not stated) was tested. Which Potency did it give?
Its Potency is inconclusive: 39.8 µM [fluorescent, single point].

How did the “FP activity change, negative = inhibition” value turn out when `CC(=O)N(CCc1ccccc1)Cc1cc2cc(C)ccc2[nH]c1=O` was run?
The value was inactive: -19.6%.

With `CNc1c(NS(=O)(=O)c2ccc(Br)cc2)c(=O)oc2ccccc12` as the molecule, how does the Potency read?
Its Potency is inconclusive: 35.5 µM [fluorescent, side channel, single point].

With `COc1ccc(NC(=O)c2cc(-c3cc(C)ccc3O)n[nH]2)cc1Cl` as the molecule, how does the Potency read?
The Potency was inconclusive: 11.2 µM [quencher, side channel, partial curve].

Which Potency does the source give for `COc1ccc(CCNC(=O)Nc2ccc([N+](=O)[O-])cc2)cc1OC` here?
The Potency was inconclusive: 25.1 µM [quencher, side channel, single point].

`CCCCNC(=O)c1onc(CSc2ccc(F)c(F)c2)c1C(=O)O` was tested. Which Potency did it give?
The Potency was inconclusive: 28.2 µM [quencher, side channel, single point].

With `C=CCn1c(=NC(=O)c2sc3ccccc3c2Cl)sc2cc(S(N)(=O)=O)ccc21` as the molecule, how does the Potency read?
Its Potency is inconclusive: 39.8 µM [inhibitor, single point].

`CC(C)(C)NC(=O)CSc1nnc(-c2ccccc2)c(-c2ccccc2)n1` was tested. Which Potency did it give?
The Potency was inconclusive: 25.1 µM [fluorescent, side channel, partial curve].

`CCOCCOC(=O)c1[nH]c2c(c1C)C(=O)CC(c1cc(OC)c(OC)c(OC)c1)C2` (configuration not stated) was tested. Which Potency did it give?
Its Potency is inconclusive: 17.8 µM [inhibitor, single point].

`CCN(CC)c1ccc(/C=N/NC(=S)NCc2ccccc2)cc1` was tested. Which Potency did it give?
Its Potency is inconclusive: 15.8 µM [quencher, side channel, partial curve].

`COc1cc(C2C(C(=O)c3ccco3)=C(O)C(=O)N2c2cc(C)on2)ccc1OCc1ccccc1` (configuration not stated) was tested. Which Potency did it give?
The Potency was inconclusive: 14.1 µM [quencher, side channel, partial curve].

`CC(C)c1ccc(/C=C/c2ccc(=O)n(C)n2)cc1` was tested. Which Potency did it give?
Its Potency is inconclusive: 28.2 µM [fluorescent, side channel, single point].

With `Cc1ccccc1C(=O)N1CCN(c2ccc([N+](=O)[O-])c(N3CCOCC3)c2)CC1` as the molecule, how does the Potency read?
Its Potency is inconclusive: 31.6 µM [fluorescent, side channel, single point].

`Cc1ccc(Nc2c([N+](=O)[O-])ccc3c2=NC2(CCCCC2)N=3)cc1` was tested. Which Potency did it give?
The Potency was inconclusive: 25.1 µM [quencher, side channel, partial curve].

`CN(C)c1ncc(/C=C2/C(=O)NC(=S)N(C3CCCCC3)C2=O)cn1` was tested. Which Potency did it give?
Its Potency is inconclusive: 15.8 µM [quencher, side channel, partial curve].

With `Oc1ccc(-c2cnns2)c(O)c1` as the molecule, how does the “FP activity change, negative = inhibition” value read?
The value was inactive: 6.07%.

With `CCOC(=O)N1CCC(n2c(SCC(=O)N3CCC(C)CC3)nc3ccccc3c2=O)CC1` as the molecule, how does the Potency read?
The Potency was inconclusive: 3.55 µM [inhibitor, full curve].

Which Potency does the source give for `C=CCNC(=O)c1ccccc1NC(=O)C1COc2ccccc2O1` (configuration not stated) here?
The Potency was inconclusive: 15.8 µM [fluorescent, side channel, single point].
